This is one part of the list.
System: PfSIP2 AP2 domain 1 (GST-tagged)
Assay: gcPBM binding intensity (ln(normalized median fluorescence intensity)); higher = stronger DNA binding
Outline: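 Binding intensity is defined as the maximum Masliner-normalised natural-log median intensity across replicate spots for either probe orientation. It was measured on an Agilent 4 × 180k array of primer-extended double-stranded 36-bp intergenic genomic probes and negative controls, to which GST-tagged P. falciparum DNA-binding domains made in E. coli were applied for 1 h in 1× PBS with 1% milk, 0.2 mg/ml BSA, 0.5% salmon testes DNA and 0.03% Triton X-100. Detection was by Alexa488 anti-GST antibody and scanning at 488 nm.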

In order of rising “gcPBM binding intensity (ln)” value:
1. ATAAAGTAAGAAGAAATAATGATTTTCATGGAAAAC [XGTACX_negctrl_site322]  6.54
2. AAATATAAGTAAATAAATAAATATATAAATATATAA [TGCATGCA_negctrl_site441]  6.64
3. TTAAAAAGAGGTGACACACACATATAAATCTAAATC [CACACA_site3738]  6.66
4. AATCAAAAAGGAACCATAATATTACAACTATATATA [CACACA_negctrl_site381]  6.72
5. TCAACGATCACTCGGTGTACTATAAATGAGAGAATT [XGTACX_site1820]  6.74
6. AATTAAACTTTGTTTTTGTTTTTTTTTTTTATATTT [CACACA_negctrl_site1316]  6.76
7. ATTAAATTAAAATAATGTACTTAATACTTTTGCTTA [XGTACX_site8404]  6.77
8. ATAAAAATATATGAAACACACAGTTTCTATAAGAAA [CACACA_site4156]  6.78
9. TAAAACTTAATGTTTTGTACATATTCTTCTTTATTT [XGTACX_site4271]  6.79
10. ATTATTATAGATAAAACACACAATTTTGTTTTCACA [CACACA_site7792]  6.8
11. AAACAATTATTATATTGTACATATATTACATTATTA [XGTACX_site1089]  6.82
12. ATATGTATATTTTTGATGTGCTTTTATTTGGTTATT [CACACA_negctrl_site626]  6.83
13. AAATACATACATTAATGTACAAATAGAAACACTCTT [XGTACX_site1512]  6.84
14. ATATGTATATAATAAGAACACACATATATTTAATTT [CACACA_site8961]  6.85
15. CGCGTATAACGAAATTGTACAAAAAAAATTAAACAT [XGTACX_site6813]  6.86
16. AAAATTAATTTATTTACACACAATATTAAAATATTT [CACACA_site7512]  6.87
17. ACATGCAAGAAGAAATGTACTTAACATCTATATAGA [XGTACX_site7338]  6.89
18. ACTAAATAAATAAATATAATATATAAATATGTATGT [TGCATGCA_negctrl_site583]  6.89
19. ACAGATGATCAAAATTGTACAGAGTTATATTATATT [XGTACX_site4642]  6.9
20. TAATATATATAACATATACACACGTTCATATATATA [CACACA_site462]  6.92
21. TTAACAAAGAAACACACACACACACCCAAAAAAAAA [CACACA_site516]  6.96
22. ATTTTTTTATAATCAACCCATTTCCTACATTTTTAT [CACACA_negctrl_site1237]  6.96
23. ATATCATATATAAGTCGTACGATGAATAGAATTTTT [XGTACX_site7586]  6.97
24. AATAAATATAAATAAATAAATATATATATATATTTG [CACACA_negctrl_site1486]  6.98
25. TCTTTAACAAGTTAAACACACATACCTATATACATA [CACACA_site7237]  6.98
26. TGGTGATATACGAAATGTACGCAAATCACAAAATAA [XGTACX_site8836]  7.01
27. GTATATATGTTTTATACACACATTAAAGGAAATATA [CACACA_site984]  7.03
28. TATTAAAAGGTGAGTACACACATATCTGAGTATATA [CACACA_site5192]  7.04
29. GATAAACCATATATAACACACATATGAATATTGCAA [CACACA_site6735]  7.07
30. TAATATACTATAAATACACACAAGTGTACATACTTC [CACACA_site983]  7.07
31. GTTATTAAATAATTCACACACATATATAAATAAATA [CACACA_site7129]  7.1
32. AATAAGATAAGGAAAAGTACTTATAATTAAACTAAT [XGTACX_site1850]  7.11
33. TATAATATATAAAAATGTACACATAAATATAAGTAG [XGTACX_site665]  7.12
34. TATTTGCAATATTATACACACATTAGATATTGCAAA [CACACA_site7565]  7.14
35. TTTTATACATATTTTACACACTAAAATATACAGATA [CACACA_site4333]  7.16
36. CTTATACAAAAAAAAAGTACATAACATAATAAGAAT [XGTACX_site6782]  7.17
37. GCCATAAAGATATATACACACATAAAAAAAAGTTAT [CACACA_site6674]  7.17
38. CACAAACAGACAAACACACACACACGGACATACATA [CACACA_site6350]  7.19
39. AAATAAAAATTAAAAAAATAGAAACGAATTGAATGC [TGCATGCA_negctrl_site365]  7.2
40. AAAAAAAATACATACACACACACACGCACATATATA [CACACA_site7645]  7.23
41. TTACATATTCATAAAAGTACATAATTATAAAAGGTA [XGTACX_site906]  7.31
42. TTGTGCTAAACAAAAAAAAATATATATAAAAAAATA [XGTACX_negctrl_site388]  7.34
43. ATATCTCAACATATCACACATATATATATATAATAT [CACACA_site5018]  7.35
44. CACCCATACAGACATACACACACATATATATTAATA [CACACA_site8077]  7.36
45. AACAATTTTTAAAGGTGTACAATATGTATATAAGAA [XGTACX_site254]  7.36
46. AACAAATTAATTCTAGTGCAGGACGTATTTGTGTAC [GTGCAC_site9907]  7.36
47. CTTCATAAAAATTGCACACATATAATAATGTACATA [CACACA_site2212]  7.44
48. AAAAAAAAAATTAAATGTACATATATAATATATATA [XGTACX_site7245]  7.46
49. TTATATTTTATTATGTGTACGTATATAATATAATAT [XGTACX_site6230]  7.46
50. ATATATATAAATATATGTACATAAATATATTTGTAA [XGTACX_site6715]  7.46
51. AATTTTGAGATGTGGTGTACACAAAATTAGTTAGAC [XGTACX_site7033]  7.53
52. TACAATATAATTTAATGTACATGTGAATATATATAT [XGTACX_site4675]  8.58
53. TTATTTAAAAATAGCACACATTATATATATATATAT [CACACA_site5556]  9.01
54. ATATATATATATAAAGGTACACATTTATTAAATATA [XGTACX_site7102]  9.39
55. CATCCACATAGATGTACACACATATATATATATATA [CACACA_site5616]  9.5
56. CTCATAGTTGGGTGCACACAAAAAATTAAAAAAATA [CACACA_site3032]  12.3
